Test results: PubChem BioAssay (NCI)
Values joined by “and” are separate entries in the source; they are usually repeats but may differ in a detail not shown here. Equal entries are not always repeated.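 Assay format: 96-well plates, 48-hour exposure. GI50 is the concentration that inhibits growth by half. TGI is the concentration that stops growth completely.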 Active and inactive are the calls of the source. Cut-off read from the data, not from the text of the source: active = GI50 below about 0.43 µM; inactive = the rest. Bridge positions count the residues as written; N and C are the ends. Square brackets hold non-standard residues; d marks the D form. Peptide text beside a SMILES is read from it. * marks the point of attachment. Fmoc = O=C(OCC1c2ccccc2-c2ccccc21)*; Cya = N[CH](CS(=O)(=O)O)C(=O)O; X45 = CC(C)CCCCCCCC(O)CC(=O)*; Boc = CC(C)(C)OC(=O)*; GABA = NCCCC(=O)O; OtBu = CC(C)(C)O*

test system: NCI-H322M lung; assay: NCI anticancer screen, dose series, 48 h

Going from `CCOC(=O)c1ccc2c(c1)c1c(C)c3cnccc3c(C)c1n2C` to `Cc1cc2nc3c4cc(C=O)ccc4n(CCN(C)C)c3nc2cc1C`, the GI50 rises from 0.382 µM to 1.62 µM (4.2-fold).

Compared with `COc1ccc(/C(COc2ccc3c(c2)oc(=O)c2cc(OC)ccc23)=N/O)cc1`, `COc1ccc(C(O)c2cc3c(N)c(C(=O)Nc4ccc(Br)cc4)sc3nc2C)cc1` (centres undefined) is 5-fold lower in GI50: 19.8 µM for the first, 3.93 µM for the second.

Going from `CC(=O)O[C@H]1C(=O)[C@@]2(C)[C@H]([C@H](OC(=O)c3ccccc3)[C@]3(O)C[C@H](OC(=O)[C@H](OC(=O)OC[C@@H]4COC(C)(C)O4)[C@@H](NC(=O)c4ccccc4)c4ccccc4)C(C)=C1C3(C)C)[C@]1(OC(C)=O)CO[C@@H]1C[C@@H]2O` to `COc1ccc(/C=C/C(=O)c2ccc(NC(=O)CSc3nnc(-c4ccc(OC)c(OC)c4)n3-c3ccccc3)cc2)cc1`, the GI50 rises from 0.101 µM to 13.6 µM (130-fold).

First: CC(=O)N1CCN([C@H]2CCC[C@@H](NC(=O)c3cc4c(F)ccc(C)c4[nH]3)C2)CC1
Second: COC(=O)c1ccc2[nH]c(O)c(C(=Nc3ccc(N(C)C(=O)CN4CCN(C)CC4)cc3)c3ccc(OC)cc3)c2c1
The GI50 of the first is 7.3-fold higher: 14.7 µM for the first, 2.02 µM for the second.

Going from `COc1ccc2c(c1)SC1=NNC(Cl)C(=O)N12` (centres undefined) to `COc1ccc(C2C(C#N)=C(N)Oc3c2sc2c(C)cccc32)cc1` (centres undefined), the GI50 falls from 19.9 µM to 0.802 µM (25-fold).

Compared with `Clc1ccc(-c2ccc(CNCC3CCNCC3)o2)c(-c2ccccc2)c1`, `COc1cccc2c(Nc3ccc(C(=O)O)cc3)cc(-c3ccccc3)nc12` is higher in GI50: 1.55 µM for the first, greater than 100 µM for the second.

First: Clc1nc(Cl)c2ncn(CC#CCn3cnc4c(Cl)nc(Cl)nc43)c2n1
Second: CCSc1nc2[nH]c(=S)[nH]c(=S)c2c(-c2ccc(OC)c(OC)c2)c1C#N
The GI50 of the first is lower: 11.3 µM for the first, greater than 50 µM for the second.

Compared with `Cn1cc(C2=C(c3cn(C)c4ccc(OCc5ccccc5)cc34)C(=O)NC2=O)c2ccccc21`, `Cc1ccc2c(c1)c(C1=C(c3cn(C)c4ccccc34)C(=O)NC1=O)cn2C` is lower in GI50: greater than 25 µM for the first, 7.93 µM for the second.

Going from `CCOC(=O)c1ccc2c(c1)c1c(C)c3cnccc3c(C)c1n2C` to `Cc1cc2nc3c4cc(C=O)ccc4n(CCN(C)C)c3nc2cc1C`, the TGI rises from 2.73 µM to 6.24 µM (2.3-fold).

`COc1ccc(CN=C2N/C(=C\c3ccccc3Cl)C(=O)N2C)cc1` and `COc1ccc([C@H]2[C@H](C)C3=Nc4ccccc4CN32)cc1` cannot be ordered by TGI: greater than 100 µM for the first, greater than 100 µM for the second.

Going from `O=C(CSCC(=O)N/N=C\c1cc(Cl)cc(Cl)c1O)N/N=C\c1cc(Cl)cc(Cl)c1O` to `Clc1nc(Cl)c2ncn(CC#CCn3cnc4c(Cl)nc(Cl)nc43)c2n1`, the TGI rises from 8.09 µM to 24.5 µM (3-fold).

Compared with `COc1ccc(/C(COc2ccc3c(c2)oc(=O)c2cc(OC)ccc23)=N/O)cc1`, `COc1ccc(C(O)c2cc3c(N)c(C(=O)Nc4ccc(Br)cc4)sc3nc2C)cc1` (centres undefined) is lower in TGI: greater than 100 µM for the first, 39.8 µM for the second.

`CC(C1CCCC1=O)C1CCCC1=O` (centres undefined) and `COc1cccc2c1C(=O)C1(O)CCCCC21` (centres undefined) cannot be ordered by TGI: greater than 100 µM for the first, greater than 100 µM for the second.

`CCOC(=O)c1sc2nc(SC)nc(Nc3ccc4c(c3)OCO4)c2c1N` and `COc1cc(C2C(C(=O)O)=C(CO)Oc3cc4c(cc32)OCO4)cc(OC)c1OC` (centres undefined) cannot be ordered by TGI: greater than 100 µM for the first, greater than 100 µM for the second.

`COC(=O)C1=C(OC(=O)/C(=C/c2ccccc2)c2ccccc2)C(C(=O)OC)[C@@]2(O)[C@@H](C(=O)OC)[C@H](C)C[C@@H]1[C@@H]2C(=O)OC` (some centres undefined) and `CC(=O)O[C@H]1C(=O)[C@@]2(C)[C@H]([C@H](OC(=O)c3ccccc3)[C@]3(O)C[C@H](OC(=O)[C@H](OC(=O)OC[C@@H]4COC(C)(C)O4)[C@@H](NC(=O)c4ccccc4)c4ccccc4)C(C)=C1C3(C)C)[C@]1(OC(C)=O)CO[C@@H]1C[C@@H]2O` cannot be ordered by TGI: greater than 100 µM for the first, greater than 33.3 µM for the second.

`Cc1ccc2ccc(O)cc2c1` and `COc1ccc(-n2sc3ncc(C)cc3c2=O)cc1` cannot be ordered by TGI: greater than 100 µM for the first, greater than 100 µM for the second.

`NC(=Nc1ccc(Cl)cc1)c1ccccc1N` and `N#Cc1c(O)c(C=Nc2ccc(Cl)cc2)c(=O)n2c1[nH]c1ccccc12` cannot be ordered by TGI: greater than 100 µM for the first, greater than 100 µM for the second.

`CC(C)CCCCCCCC(O)CC(=O)NC(CS(=O)(=O)O)C(=O)NC(CC(C)C)C(=O)NCCCC(=O)NC(Cc1cnc[nH]1)C(=O)NC(C)C(=O)NC1C(=O)NC(C(C)O)C(=O)NC(Cc2cnc[nH]2)C(=O)NC(C)C(=O)NC(C(C)O)C(=O)OC1C` (centres undefined) (X45-[Cya]L[GABA]HATTHAT; ester 6-C; configuration not given here) and `CC(C)(C)OC(=O)CCC(NC(=O)OCC1c2ccccc2-c2ccccc21)C(=O)NC(Cc1c[nH]c2ccccc12)C(=O)NC(CCCCNC(=O)OC(C)(C)C)C(=O)N1CCCC1C(=O)NCC(N)=O` (centres undefined) (Fmoc-E(OtBu)WK(Boc)PG-NH2; configuration not given here) cannot be ordered by TGI: greater than 25 µM for the first, greater than 100 µM for the second.

`CC1=C(/C=C/C(C)=C/C=C/C(C)=C/C=C/C=C(C)/C=C/C=C(C)/C=C/C=C(C)/C=C/C=C(\C)C(=O)O)C(C)(C)CCC1` and `CC(=O)Oc1ccc(/C=C/C(=O)NCC(NC(=O)/C=C/c2ccc(OC(C)=O)c(OC(C)=O)c2)C(=O)O)cc1OC(C)=O` (centres undefined) cannot be ordered by TGI: greater than 100 µM for the first, greater than 100 µM for the second.

First: CC(=O)N1CCN([C@H]2CCC[C@@H](NC(=O)c3cc4c(F)ccc(C)c4[nH]3)C2)CC1
Second: COC(=O)c1ccc2[nH]c(O)c(C(=Nc3ccc(N(C)C(=O)CN4CCN(C)CC4)cc3)c3ccc(OC)cc3)c2c1
The TGI of the first is higher: greater than 100 µM for the first, 7.69 µM for the second.

`Cc1nc2nn[nH]n2c(=O)c1CCO` and `O=c1nc2n(c3nsnc13)CCO2` cannot be ordered by TGI: greater than 100 µM for the first, greater than 100 µM for the second.

Compared with `O/N=C(\C(=N/O)Nc1ccc(-c2ccc(NC(=N/O)/C(=N\O)c3ccccc3)cc2)cc1)c1ccccc1`, `COc1cccc2c(Nc3ccc(C(=O)O)cc3)cc(-c3ccccc3)nc12` is higher in TGI: 77.8 µM for the first, greater than 100 µM for the second.

Compared with `COc1ccc(C2=Nn3c(nnc3-c3ccccc3)S/C2=C\c2ccc(-c3ccc([N+](=O)[O-])cc3)o2)cc1`, `COc1ccc(/C=C/C(=O)c2ccc(NC(=O)CSc3nnc(-c4ccc(OC)c(OC)c4)n3-c3ccccc3)cc2)cc1` is lower in TGI: greater than 100 µM for the first, 26.4 µM for the second.

`Cc1cc(CN2CCCCC2)c(O)c(CN2CCCCC2)c1` and `O=c1[nH]cnc2[nH]cc(CN3CCCCC3)c12` cannot be ordered by TGI: greater than 100 µM for the first, greater than 100 µM for the second.

First: Brc1ccc2c(C3CN[C@@H](c4c[nH]c5cc(Br)ccc45)CN3)c[nH]c2c1 (some centres undefined)
Second: CC(=O)OC1COC(n2c3ccccc3c3ccc4c5ccccc5[nH]c4c32)C(OC(C)=O)C1OC(C)=O (centres undefined)
The TGI of the first is lower: 13.8 µM for the first, greater than 100 µM for the second.

Going from `COc1ccc2c(c1)SC1=NNC(Cl)C(=O)N12` (centres undefined) to `Cn1c(N)c(Cc2ccc(Cl)cc2)c(=O)[nH]c1=O`, the TGI rises from 38.7 µM to greater than 100 µM.

First: CCCCc1[nH]ccc2c(C)c3nc4ccccc4c3cc12
Second: O=C(NNc1cn[nH]c(=O)n1)c1cccc2nc3ccccc3nc12
The TGI of the first is lower: 14.7 µM for the first, greater than 100 µM for the second.

`COC(=O)c1cc(CC2Cc3cc4c(cc3C2)CCC4)cc2c1CCC2` and `COc1cc2c(cc1OC)C1c3ccccc3CCCN1CC2` (centres undefined) cannot be ordered by TGI: greater than 100 µM for the first, greater than 100 µM for the second.

`Nc1ccc(N)c2c1C(=O)c1ccccc1C2=O` and `O=C1C=C(Nc2ccccc2C(=O)c2ccccc2)c2ccccc2C1=O` cannot be ordered by TGI: greater than 100 µM for the first, greater than 100 µM for the second.

`CCN(CC)S(=O)(=O)c1ccc2nc(NC(=O)OC)[nH]c2c1` and `COc1ccc2c3c([nH]c2c1CC=C(C)C)C(=O)C=C(C)C3=O` cannot be ordered by TGI: greater than 100 µM for the first, greater than 25 µM for the second.

Going from `C=C1CC(Cn2cc(C)c(=O)[nH]c2=O)(c2ccc(Cl)cc2)OC1=O` (centres undefined) to `COc1ccc(C(=O)Cc2ccc(Cl)cc2)cc1OC`, the TGI rises from 30.5 µM to greater than 100 µM.

`COc1ccccc1NCc1nnc(CCCCCCCCc2nnc(CNc3ccccc3OC)o2)o1` and `COc1ccc(/C=C2/SC(c3ccccc3)N(NC(=O)CCCCCCCCC(=O)NN3C(=O)/C(=C\c4ccc(OC)c(OC)c4)SC3c3ccccc3)C2=O)cc1OC` (centres undefined) cannot be ordered by TGI: greater than 100 µM for the first, greater than 100 µM for the second.

Going from `ClCc1nn(-c2ccccc2)c(CCl)c1CCl` to `CCOC(=O)C1=NC(c2ccccc2)(c2ccccc2)OC1=C(Cl)Cl`, the TGI rises from 27.5 µM to greater than 100 µM.

`Cc1ccc(-c2c(C#N)c(-c3ccccc3)c(C#N)c(=O)n2NS(=O)(=O)c2ccc(C)cc2)cc1` and `CC1c2ccccc2Cn2cc3c(c21)C(=O)c1cccc(OP(=O)(O)OCc2ccccc2)c1C3=O` (centres undefined) cannot be ordered by TGI: greater than 100 µM for the first, greater than 100 µM for the second.

Compared with `Clc1ccc(-c2ccc(CNCC3CCNCC3)o2)c(-c2ccccc2)c1`, `O=C(N/N=C\c1c(O)ccc2ccccc12)c1ccncc1` is higher in TGI: 2.93 µM for the first, greater than 17.5 µM for the second.

`COc1cc(C(C)c2cc3c(cc2OCCN)OCO3)cc(OC)c1OC` (centres undefined) and `COC12COC(=O)C1C(c1ccc3c(c1)OCO3)c1cc3c(cc1O2)OCO3` (centres undefined) cannot be ordered by TGI: greater than 100 µM for the first, greater than 100 µM for the second.

Going from `COc1ccc(C2C(C#N)=C(N)Oc3c2sc2c(C)cccc32)cc1` (centres undefined) to `CCSc1nc2[nH]c(=S)[nH]c(=S)c2c(-c2ccc(OC)c(OC)c2)c1C#N`, the TGI rises from 18.2 µM to greater than 50 µM.

`O=C1C[C@@H](c2ccc(O)cc2)[C@@]2(O1)C(=O)O[C@H]([C@@H](O)CO)[C@@H]2O` and `CC12CCC3(C1)[C@H](CC2=O)C[C@@H](OC(=O)c1ccccc1)C1C(C)(CO)CCC[C@@]13C` (some centres undefined) cannot be ordered by TGI: greater than 100 µM for the first, greater than 100 µM for the second.

`CSC(N)=Nc1cccc2ccccc12` and `O=S(CCc1ccccc1)Nc1ccccc1` (centres undefined) cannot be ordered by TGI: greater than 10 µM for the first, greater than 100 µM for the second.

`COC(=O)CCC(NC(=S)N/N=C(\C)c1ccco1)C(=O)OC` (centres undefined) and `CC(=O)Oc1cc2oc(=O)cc(C)c2cc1OC(C)=O` cannot be ordered by TGI: greater than 100 µM for the first, greater than 100 µM for the second.

`Cc1cc2c(cc1C)[n+]([O-])c(NCCCN(C)C)c(C#N)[n+]2[O-]` and `COc1cc(/C=C2\N=C(c3ccccc3)N(c3cc4cc(Sc5ccccc5)ccc4[nH]3)C2=O)cc(OC)c1OC` cannot be ordered by TGI: greater than 100 µM for the first, greater than 75 µM for the second.

`O=C(O)C(C(C(=O)O)P(=O)(O)O)P(=O)(O)O` (centres undefined) and `O=C(O)c1ccc(C=C2Sc3ccccc3S2)cc1` cannot be ordered by TGI: greater than 100 µM for the first, greater than 100 µM for the second.

`O=C(OC1C=C=CS(=O)(=O)CC#C/C=C\1)c1cnc2ccccc2n1` (centres undefined) and `Cc1ccc2c(c1)c(C1=C(c3cn(C)c4ccccc34)C(=O)NC1=O)cn2C` cannot be ordered by TGI: greater than 100 µM for the first, greater than 22.8 µM for the second.

Compound `Cn1cc(C2=C(c3cn(C)c4ccc(OCc5ccccc5)cc34)C(=O)NC2=O)c2ccccc21` has a TGI greater than 25 µM.

With `CC(C)(C)OC(=O)CCC(NC(=O)OCC1c2ccccc2-c2ccccc21)C(=O)NC(Cc1c[nH]c2ccccc12)C(=O)NC(CCCCNC(=O)OC(C)(C)C)C(=O)N1CCCC1C(=O)NCC(N)=O` (centres undefined) (Fmoc-E(OtBu)WK(Boc)PG-NH2; configuration not given here) the GI50 was 42.6 µM and > 100 µM.

With `O=C(O)CN1CCN(CC(=O)O)CCN(CC(=O)O)CC1` the outcome was “inactive”.
